Source: the supplement of paper PMC8728848
The list shows a part of the results.

Columns and labels:
Test in all cases: glycan array binding signal (z-score within array); higher = stronger binding
Conditions in all cases: glycan notation: IUPAC condensed, linker removed
[1] = biological target: Gal(b1-4)GlcNAc(b1-2)[Gal(b1-4)GlcNAc(b1-6)]Man(a1-6)[GlcNAc(b1-4)][Gal(b1-4)GlcNAc(b1-2)Man(a1-3)]Man(b1-4)GlcNAc(b1-4)GlcNAc
How it was run: (§1)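 The Consortium for Functional Glycomics database supplied 3228 glycan arrays, of which those lacking an available protein sequence were dropped. The binding signal, a within-array Z-score, was averaged across arrays of the same protein sequence and across linkers. Negative scores can be read as non-binding.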

[2] = biological target: Gal(b1-4)GlcNAc(b1-2)[Gal(b1-4)GlcNAc(b1-6)]Man(a1-6)[GlcNAc(b1-4)][Gal(b1-4)GlcNAc(b1-2)[Gal(b1-4)GlcNAc(b1-4)]Man(a1-3)]Man(b1-4)GlcNAc(b1-4)[Fuc(a1-6)]GlcNAc
How it was run: as §1

[3] = biological target: Gal(b1-4)GlcNAc(b1-3)Gal(b1-3)GalNAc
How it was run: as §1

[4] = biological target: Gal(b1-4)GlcNAc(b1-3)Gal(b1-3)GlcNAc
How it was run: as §1

[5] = biological target: Gal(b1-4)GlcNAc(b1-3)Gal(b1-4)Glc
How it was run: as §1

[6] = biological target: Gal(b1-4)GlcNAc(b1-3)Gal(b1-4)GlcNAc
How it was run: as §1

[7] = biological target: Gal(b1-4)GlcNAc(b1-3)Gal(b1-4)GlcNAc(b1-2)Man(a1-3)[Gal(b1-4)GlcNAc(b1-3)Gal(b1-4)GlcNAc(b1-2)Man(a1-6)]Man(b1-4)GlcNAc(b1-4)GlcNAc
How it was run: as §1

[8] = biological target: Gal(b1-4)GlcNAc(b1-3)Gal(b1-4)GlcNAc(b1-2)Man(a1-3)[Gal(b1-4)GlcNAc(b1-3)Gal(b1-4)GlcNAc(b1-2)Man(a1-6)]Man(b1-4)GlcNAc(b1-4)[Fuc(a1-6)]GlcNAc
How it was run: as §1

[9] = biological target: Gal(b1-4)GlcNAc(b1-3)Gal(b1-4)GlcNAc(b1-2)[Gal(b1-4)GlcNAc(b1-3)Gal(b1-4)GlcNAc(b1-6)]Man(a1-6)[Gal(b1-4)GlcNAc(b1-3)Gal(b1-4)GlcNAc(b1-2)Man(a1-3)]Man(b1-4)GlcNAc(b1-4)GlcNAc
How it was run: as §1

[10] = biological target: Gal(b1-4)GlcNAc(b1-3)Gal(b1-4)GlcNAc(b1-2)[Gal(b1-4)GlcNAc(b1-3)Gal(b1-4)GlcNAc(b1-6)]Man(a1-6)[Gal(b1-4)GlcNAc(b1-3)Gal(b1-4)GlcNAc(b1-2)Man(a1-3)]Man(b1-4)GlcNAc(b1-4)[Fuc(a1-6)]GlcNAc
How it was run: as §1

[11] = biological target: Gal(b1-4)GlcNAc(b1-3)Gal(b1-4)GlcNAc(b1-3)Gal(b1-4)GlcNAc
How it was run: as §1

[12] = biological target: Gal(b1-4)GlcNAc(b1-3)Gal(b1-4)GlcNAc(b1-3)Gal(b1-4)GlcNAc(b1-2)Man(a1-3)[Gal(b1-4)GlcNAc(b1-3)Gal(b1-4)GlcNAc(b1-3)Gal(b1-4)GlcNAc(b1-2)Man(a1-6)]Man(b1-4)GlcNAc(b1-4)GlcNAc
How it was run: as §1

[13] = biological target: Gal(b1-4)GlcNAc(b1-3)Gal(b1-4)GlcNAc(b1-3)Gal(b1-4)GlcNAc(b1-2)Man(a1-3)[Gal(b1-4)GlcNAc(b1-3)Gal(b1-4)GlcNAc(b1-3)Gal(b1-4)GlcNAc(b1-2)Man(a1-6)]Man(b1-4)GlcNAc(b1-4)[Fuc(a1-6)]GlcNAc
How it was run: as §1

[14] = biological target: Gal(b1-4)GlcNAc(b1-3)Gal(b1-4)GlcNAc(b1-3)Gal(b1-4)GlcNAc(b1-2)[Gal(b1-4)GlcNAc(b1-3)Gal(b1-4)GlcNAc(b1-3)Gal(b1-4)GlcNAc(b1-6)]Man(a1-6)[Gal(b1-4)GlcNAc(b1-3)Gal(b1-4)GlcNAc(b1-3)Gal(b1-4)GlcNAc(b1-2)Man(a1-3)]Man(b1-4)GlcNAc(b1-4)[Fuc(a1-6)]GlcNAc
How it was run: as §1

[15] = biological target: Gal(b1-4)GlcNAc(b1-3)Gal(b1-4)GlcNAc(b1-3)Gal(b1-4)GlcNAc(b1-3)Gal(b1-4)GlcNAc(b1-2)Man(a1-3)[Gal(b1-4)GlcNAc(b1-3)Gal(b1-4)GlcNAc(b1-3)Gal(b1-4)GlcNAc(b1-3)Gal(b1-4)GlcNAc(b1-2)Man(a1-6)]Man(b1-4)GlcNAc(b1-4)GlcNAc
How it was run: as §1

[16] = biological target: Gal(b1-4)GlcNAc(b1-3)Gal(b1-4)GlcNAc(b1-3)Gal(b1-4)GlcNAc(b1-3)Gal(b1-4)GlcNAc(b1-2)Man(a1-3)[Gal(b1-4)GlcNAc(b1-3)Gal(b1-4)GlcNAc(b1-3)Gal(b1-4)GlcNAc(b1-3)Gal(b1-4)GlcNAc(b1-2)Man(a1-6)]Man(b1-4)GlcNAc(b1-4)[Fuc(a1-6)]GlcNAc
How it was run: as §1

[17] = biological target: Gal(b1-4)GlcNAc(b1-3)Gal(b1-4)GlcNAc(b1-3)Gal(b1-4)GlcNAc(b1-3)Gal(b1-4)GlcNAc(b1-2)[Gal(b1-4)GlcNAc(b1-3)Gal(b1-4)GlcNAc(b1-3)Gal(b1-4)GlcNAc(b1-3)Gal(b1-4)GlcNAc(b1-6)]Man(a1-6)[Gal(b1-4)GlcNAc(b1-3)Gal(b1-4)GlcNAc(b1-3)Gal(b1-4)GlcNAc(b1-3)Gal(b1-4)GlcNAc(b1-2)Man(a1-3)]Man(b1-4)GlcNAc(b1-4)[Fuc(a1-6)]GlcNAc
How it was run: as §1

[18] = biological target: Gal(b1-4)GlcNAc(b1-3)Gal(b1-4)GlcNAc(b1-3)Gal(b1-4)GlcNAc(b1-3)Gal(b1-4)GlcNAc(b1-3)Gal(b1-4)GlcNAc(b1-2)Man(a1-3)[Gal(b1-4)GlcNAc(b1-3)Gal(b1-4)GlcNAc(b1-3)Gal(b1-4)GlcNAc(b1-3)Gal(b1-4)GlcNAc(b1-3)Gal(b1-4)GlcNAc(b1-2)Man(a1-6)]Man(b1-4)GlcNAc(b1-4)GlcNAc
How it was run: as §1

[19] = biological target: Gal(b1-4)GlcNAc(b1-3)Gal(b1-4)GlcNAc(b1-3)Gal(b1-4)GlcNAc(b1-3)Gal(b1-4)GlcNAc(b1-3)Gal(b1-4)GlcNAc(b1-2)Man(a1-3)[Gal(b1-4)GlcNAc(b1-3)Gal(b1-4)GlcNAc(b1-3)Gal(b1-4)GlcNAc(b1-3)Gal(b1-4)GlcNAc(b1-3)Gal(b1-4)GlcNAc(b1-2)Man(a1-6)]Man(b1-4)GlcNAc(b1-4)[Fuc(a1-6)]GlcNAc
How it was run: as §1

[20] = biological target: Gal(b1-4)GlcNAc(b1-3)Gal(b1-4)GlcNAc(b1-3)Gal(b1-4)GlcNAc(b1-3)Gal(b1-4)GlcNAc(b1-3)Gal(b1-4)GlcNAc(b1-2)[Gal(b1-4)GlcNAc(b1-3)Gal(b1-4)GlcNAc(b1-3)Gal(b1-4)GlcNAc(b1-3)Gal(b1-4)GlcNAc(b1-3)Gal(b1-4)GlcNAc(b1-6)]Man(a1-6)[Gal(b1-4)GlcNAc(b1-3)Gal(b1-4)GlcNAc(b1-3)Gal(b1-4)GlcNAc(b1-3)Gal(b1-4)GlcNAc(b1-3)Gal(b1-4)GlcNAc(b1-2)Man(a1-3)]Man(b1-4)GlcNAc(b1-4)[Fuc(a1-6)]GlcNAc
How it was run: as §1

[21] = biological target: Gal(b1-4)GlcNAc(b1-3)Gal(b1-4)GlcNAc(b1-3)Gal(b1-4)GlcNAc(b1-3)Gal(b1-4)GlcNAc(b1-3)Gal(b1-4)GlcNAc(b1-3)Gal(b1-4)GlcNAc(b1-2)Man(a1-3)[Gal(b1-4)GlcNAc(b1-3)Gal(b1-4)GlcNAc(b1-3)Gal(b1-4)GlcNAc(b1-3)Gal(b1-4)GlcNAc(b1-3)Gal(b1-4)GlcNAc(b1-3)Gal(b1-4)GlcNAc(b1-2)Man(a1-6)]Man(b1-4)GlcNAc(b1-4)GlcNAc
How it was run: as §1

[22] = biological target: Gal(b1-4)GlcNAc(b1-3)Gal(b1-4)GlcNAc(b1-3)GalNAc
How it was run: as §1

[23] = biological target: Gal(b1-4)GlcNAc(b1-3)Gal(b1-4)GlcNAc(b1-3)[Gal(b1-4)GlcNAc(b1-3)Gal(b1-4)GlcNAc(b1-6)]GalNAc
How it was run: as §1

[24] = biological target: Gal(b1-4)GlcNAc(b1-3)Gal(b1-4)GlcNAc(b1-6)[Gal(b1-3)]GalNAc
How it was run: as §1

[25] = biological target: Gal(b1-4)GlcNAc(b1-3)Gal(b1-4)[Fuc(a1-3)]GlcNAc(b1-3)Gal(b1-4)[Fuc(a1-3)]GlcNAc
How it was run: as §1

[26] = biological target: Gal(b1-4)GlcNAc(b1-3)GalNAc
How it was run: as §1

[27] = biological target: Gal(b1-4)GlcNAc(b1-3)[Fuc(a1-3)GlcNAc(b1-6)]Gal(b1-4)Glc
How it was run: as §1

[28] = biological target: Gal(b1-4)GlcNAc(b1-3)[Gal(b1-4)GlcNAc(b1-6)]Gal(b1-4)GlcNAc
How it was run: as §1

[29] = biological target: Gal(b1-4)GlcNAc(b1-3)[GlcNAc(b1-6)]Gal(b1-4)GlcNAc
How it was run: as §1

[30] = biological target: Gal(b1-4)GlcNAc(b1-6)Gal(b1-4)GlcNAc
How it was run: as §1

[31] = biological target: Gal(b1-4)GlcNAc(b1-6)GalNAc
How it was run: as §1

[32] = biological target: Gal(b1-4)GlcNAc(b1-6)[Gal(b1-3)]GalNAc
How it was run: as §1

[33] = biological target: Gal(b1-4)GlcNAc(b1-6)[Gal(b1-4)GlcNAc(b1-3)]GalNAc
How it was run: as §1

Gal(b1-4)GlcNAc6P = biological target: Gal(b1-4)GlcNAc6P
How it was run: as §1

Gal(b1-6)Gal = biological target: Gal(b1-6)Gal
How it was run: as §1

Gal3S(b1-3)GalNAc = biological target: Gal3S(b1-3)GalNAc
How it was run: as §1

Gal3S(b1-3)GlcNAc = biological target: Gal3S(b1-3)GlcNAc
How it was run: as §1

[34] = biological target: Gal3S(b1-3)[Fuc(a1-4)]GlcNAc
How it was run: as §1

B1: PX9937A-bvu-521-23-521 (Bacteroides vulgatus) (protein)
chain: LDLAPEDYYGAGNFWKEASQPKAFMLGLHAQLRSYYDMFYTLGELRGGTQRVGTSSLNTSLNYADIRSQNISEDIPGISNWNGLYSPIMQVNHFIQEVENGCTFLDDATRSRYLGQAYGMRALYYFMLYRTFGGVPLITKVDILDGKPSADKFYVERATPEATMEFIKADINKSENYFGNNTSFDAYDWSRYATLMLKAEIYMWAAKVSITGFTATGATDLQTAKTALSGIIGHFELMDNFASIFSCDNKKNTEIIFAMPFIEGEASNDGGRFLYQDAVFLGQAYGRNGKVIEKDTLNLKGTGGVFRDEYTEDFWKTFKEGDSRRDATFMEYYMKNDNGTLSEFGCVMKKRIGTINSNDNRIYISDIPVYRYADALLMMAEIENGLNNPCASYINEVRKRAYGDTFEENKYTEGSYAENELAILQERDKEFVSEGKRWFDVLRMHDASGRSLVFSANANYPGTNPILGTEEAYKMLWPVNIGTLNVNPLLTQTPGYGKK
glycan array binding signal (z-score) [1]: -0.225 | glycan array binding signal (z-score) [2]: -0.18 | glycan array binding signal (z-score) [3]: -0.293 | glycan array binding signal (z-score) [4]: -0.205 | glycan array binding signal (z-score) [5]: -0.039 | glycan array binding signal (z-score) [6]: -0.083 | glycan array binding signal (z-score) [7]: 1.63 | glycan array binding signal (z-score) [8]: -0.364 | glycan array binding signal (z-score) [9]: -0.387 | glycan array binding signal (z-score) [10]: 0.354 | glycan array binding signal (z-score) [11]: -0.132 | glycan array binding signal (z-score) [12]: 0.597 | glycan array binding signal (z-score) [13]: 0.252 | glycan array binding signal (z-score) [14]: -0.206 | glycan array binding signal (z-score) [15]: -0.268 | glycan array binding signal (z-score) [16]: 0.676 | glycan array binding signal (z-score) [17]: -0.266 | glycan array binding signal (z-score) [18]: 2.53 | glycan array binding signal (z-score) [19]: 1.35 | glycan array binding signal (z-score) [20]: 0.091 | glycan array binding signal (z-score) [21]: 0.665 | glycan array binding signal (z-score) [22]: 0.578 | glycan array binding signal (z-score) [23]: -0.424 | glycan array binding signal (z-score) [24]: -0.067 | glycan array binding signal (z-score) [25]: -0.554 | glycan array binding signal (z-score) [26]: -0.456 | glycan array binding signal (z-score) [27]: -0.299 | glycan array binding signal (z-score) [28]: -0.224 | glycan array binding signal (z-score) [29]: -0.325 | glycan array binding signal (z-score) [30]: 0.184 | glycan array binding signal (z-score) [31]: -0.363 | glycan array binding signal (z-score) [32]: 6.72 | glycan array binding signal (z-score) [33]: 0.459 | glycan array binding signal (z-score) (Gal(b1-4)GlcNAc6P): 0.719 | glycan array binding signal (z-score) (Gal(b1-6)Gal): 0.277 | glycan array binding signal (z-score) (Gal3S(b1-3)GalNAc): -0.408 | glycan array binding signal (z-score) (Gal3S(b1-3)GlcNAc): -0.049 | glycan array binding signal (z-score) [34]: -0.211
